Hit rate of the full screen: of about 310,000 compounds, about 2,200 (0.71%) showed an effect of 50% or more. Effects have a minus sign here. The list shows a part of the results.
Molecular target: human ether-à-go-go-related gene (hERG) potassium channel (human, UniProt Q12809)
Assay: primary screen, population patch clamp on CHO cells stably expressing hERG

Sequence of human ether-à-go-go-related gene (hERG) potassium channel (Q12809 whole entry, looked up): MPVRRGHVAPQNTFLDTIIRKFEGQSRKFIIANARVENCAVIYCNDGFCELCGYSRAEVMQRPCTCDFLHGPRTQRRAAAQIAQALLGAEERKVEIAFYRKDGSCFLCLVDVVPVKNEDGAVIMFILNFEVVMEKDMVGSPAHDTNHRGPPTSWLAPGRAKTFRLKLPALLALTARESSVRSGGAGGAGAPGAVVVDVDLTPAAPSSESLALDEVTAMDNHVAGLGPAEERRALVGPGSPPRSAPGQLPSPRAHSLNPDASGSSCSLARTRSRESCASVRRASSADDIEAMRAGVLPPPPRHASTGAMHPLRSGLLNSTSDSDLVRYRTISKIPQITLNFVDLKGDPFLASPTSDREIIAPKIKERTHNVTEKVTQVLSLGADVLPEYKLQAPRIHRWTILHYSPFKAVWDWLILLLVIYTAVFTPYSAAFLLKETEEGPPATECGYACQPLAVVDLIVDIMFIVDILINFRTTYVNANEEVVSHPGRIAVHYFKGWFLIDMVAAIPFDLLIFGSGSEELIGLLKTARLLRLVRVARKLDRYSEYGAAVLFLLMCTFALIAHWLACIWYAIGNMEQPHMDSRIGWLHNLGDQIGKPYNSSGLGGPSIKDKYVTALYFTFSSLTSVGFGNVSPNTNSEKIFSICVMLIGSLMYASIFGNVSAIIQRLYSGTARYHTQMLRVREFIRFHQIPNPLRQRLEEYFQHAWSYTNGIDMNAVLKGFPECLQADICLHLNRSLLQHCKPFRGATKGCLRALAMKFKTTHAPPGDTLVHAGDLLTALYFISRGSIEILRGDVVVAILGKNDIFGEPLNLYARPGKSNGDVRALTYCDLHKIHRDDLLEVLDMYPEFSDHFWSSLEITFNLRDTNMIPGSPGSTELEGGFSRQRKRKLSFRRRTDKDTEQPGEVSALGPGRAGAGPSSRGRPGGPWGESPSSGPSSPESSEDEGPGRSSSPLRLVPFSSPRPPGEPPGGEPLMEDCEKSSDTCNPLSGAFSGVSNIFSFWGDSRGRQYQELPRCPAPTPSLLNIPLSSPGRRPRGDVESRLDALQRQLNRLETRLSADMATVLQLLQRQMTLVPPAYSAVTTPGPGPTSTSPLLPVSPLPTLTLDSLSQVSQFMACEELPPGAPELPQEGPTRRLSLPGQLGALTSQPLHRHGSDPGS

Row | SMILES | hERG current change (%, negative = inhibition) at 1uM [%]
1 | CC(OC(=O)c1ccc(F)c(S(=O)(=O)N2CCOCC2)c1)C(=O)NCC1CCCCC1 (stereo not shown) | 14.6
2 | Cc1ccc(-n2nc(C)c(/C=N/NC(=O)c3cccs3)c2Cl)cc1 | 7.56
3 | CCCCCCCC(=O)N1c2ccccc2NC(=O)C1CC(=O)Nc1ccc(C(=O)O)cc1 (stereo not shown) | 11.4
4 | COc1ccc(NS(=O)(=O)c2cc(OC)ccc2NC(=O)c2cc(C)oc2C)cc1 | 5.1
5 | COc1ccc2c(OC)c3ccoc3nc2c1OC | 10.9
6 | Cc1ccc(C(=O)N/N=C/c2cc(Br)ccc2O)cn1 | 9.5
7 | Cc1ccc(NC(=O)CCNC(=O)c2ccc([N+](=O)[O-])cc2)cc1S(=O)(=O)N(C)C | -10.4
8 | Cc1ccc2cc(CN(CCN3CCCC3)C(=O)Nc3ccccc3)c(=O)[nH]c2c1C | 1.66
9 | COc1ccc(CCN(C)CC(=O)Nc2cc(C)nc3ccccc23)cc1OC.O=C(O)C(=O)O | 13
10 | C=CCNC(=O)NC(=O)COC(=O)CC(NC(N)=O)c1ccc(Cl)cc1 (stereo not shown) | 2.04
11 | COc1ccccc1CCNS(=O)(=O)c1cn(C)nc1C | 5.43
12 | COc1ccc(Nc2nc(N)c([N+](=O)[O-])c(NCc3ccccc3)n2)cc1 | 8.62
13 | CCN1CCN(c2nc(-c3cccnc3)nc3ccccc23)CC1.Cl | -18.4
14 | O=C(Nc1cc(F)ccc1F)C1CCCN1S(=O)(=O)c1cccc2nsnc12 (stereo not shown) | 8.38
15 | CC1(C)CC(NC(=O)c2sc3cc(Cl)ccc3c2Cl)CC(C)(C)N1 | 5.23
16 | Cc1ccc(-n2[nH]c(C)c(C=Nc3ccc(S(=O)(=O)N4CCOCC4)cc3)c2=O)c(C)c1 | 0.57
17 | Clc1ccc(-c2cc(-c3ccccc3)on2)cc1 | 11.9
18 | COc1ccc(/C(O)=C2/C(=O)C(=O)N(CCN3CCNCC3)C2c2cccc([N+](=O)[O-])c2)cc1 (stereo not shown) | 20.2
19 | Cc1ccc(C(=O)NCC(=O)O)cc1S(=O)(=O)N1CCCCC1 | 13.9
20 | O=S(=O)(c1ccc(Cl)cc1)N1CN(CC2CCCO2)c2nc3ccccc3nc21 (stereo not shown) | 10.1
21 | COc1ccc(N=Cc2ccc(CNS(=O)(=O)c3ccc(Cl)cc3)o2)cc1 | 11.4
22 | Cc1cn(CC2COC(C)(C)O2)c(=O)[nH]c1=O (stereo not shown) | 17.5

Row | SMILES | hERG current change (%, negative = inhibition) at 1uM [%]
23 | Cc1ccccc1S(=O)(=O)N1[C@@H](c2ccccc2)C(C(=O)O)=CC[C@H]1c1ccc(Cl)cc1 | 17.9
24 | COc1ccccc1N(Cc1cc2ccc(C)cc2[nH]c1=O)C(C)=O | 4.55
25 | Cc1nc2ccc3nc(NC(=O)c4ccc5c(c4)OCCO5)sc3c2s1 | 9.46
26 | O=C1Nc2ccccc2O/C1=C\c1ccccc1 | 13.4
27 | Cc1ccc(C)c(OCC(=O)N2CCc3ccccc3C2)c1 | 9.13
28 | CC(C)(C)c1ccc(C(=O)NCC(=O)OCC(=O)N2CCN(S(=O)(=O)c3ccc(Cl)cc3)CC2)cc1 | 16
29 | CN(C)C(CNC(=O)c1ccc(C2SCCS2)cc1)c1ccccc1 (stereo not shown) | 15.8
30 | COc1cccc(N2C(=O)C(Cc3c[nH]c4ccccc34)NC2=S)c1 (stereo not shown) | 16.7
31 | Cc1cccc(NS(=O)(=O)c2ccccc2)n1 | -5.76
32 | O=c1[nH]c(O)c(C=Nc2ccccc2[N+](=O)[O-])c(=O)[nH]1 | 11.2
33 | CC(=O)OCC(=O)C1(O)CCC2C3CCC4=CC(=O)C=CC4(C)C3C(O)CC21C (stereo not shown) | 8.87
34 | COc1ccc(C(=O)Nn2c(SCc3cccc([N+](=O)[O-])c3)nc3ccccc3c2=O)cc1 | 16.6
35 | CC(=O)Nc1ccc(NC(=O)C(=O)NCC(c2ccco2)N2CCc3ccccc32)cc1 (stereo not shown) | 0.613
36 | COC(=O)c1cc(OC)c(OC)cc1NC(=O)C1CCC(=O)N1S(=O)(=O)c1ccc(C)cc1 (stereo not shown) | 15.3
37 | Cc1ccc(C(=O)N(C)CC(=O)Nc2cccc(F)c2)cc1S(=O)(=O)N1CCCCC1 | 7.39
38 | Cc1c(/C=N/n2cnnc2)c2ccccc2n1CCOc1ccc(Cl)cc1 | 4.48
39 | COCCN1CCn2c(nc3cc(NS(C)(=O)=O)ccc32)C1 | 1.93
40 | CCC(=O)c1ccc(OCC(O)CNC(C)c2ccccc2)cc1 (stereo not shown) | 14.1
41 | CC(=O)O[C@@H]1[C@@H](OC(C)=O)[C@H](n2ccc3cc([N+](=O)[O-])ccc32)OC[C@@H]1OC(C)=O | 5.46
42 | CCOc1cc(N2CCOCC2)c(OCC)cc1NC(=O)CN1C(=O)NC2(CCCCC2)C1=O | -6.94
43 | Cc1cc(Cl)c(OCCOCCN2CCN(C)CC2)c(Br)c1.O=C(O)C(=O)O | 14.3

Source: paper PMC4336329 (PLoS ONE, 2015)
